According to the supplement of paper PMC3334620:
The full ranking holds about 33,000 sequences; the median of “E-score (-0.5 to 0.5)” is about -0.012, and the highest 2% start at about 0.27. The list shows a part of the results.

Target: T1, Vhr1 (UniProt P40522)
T1 sequence: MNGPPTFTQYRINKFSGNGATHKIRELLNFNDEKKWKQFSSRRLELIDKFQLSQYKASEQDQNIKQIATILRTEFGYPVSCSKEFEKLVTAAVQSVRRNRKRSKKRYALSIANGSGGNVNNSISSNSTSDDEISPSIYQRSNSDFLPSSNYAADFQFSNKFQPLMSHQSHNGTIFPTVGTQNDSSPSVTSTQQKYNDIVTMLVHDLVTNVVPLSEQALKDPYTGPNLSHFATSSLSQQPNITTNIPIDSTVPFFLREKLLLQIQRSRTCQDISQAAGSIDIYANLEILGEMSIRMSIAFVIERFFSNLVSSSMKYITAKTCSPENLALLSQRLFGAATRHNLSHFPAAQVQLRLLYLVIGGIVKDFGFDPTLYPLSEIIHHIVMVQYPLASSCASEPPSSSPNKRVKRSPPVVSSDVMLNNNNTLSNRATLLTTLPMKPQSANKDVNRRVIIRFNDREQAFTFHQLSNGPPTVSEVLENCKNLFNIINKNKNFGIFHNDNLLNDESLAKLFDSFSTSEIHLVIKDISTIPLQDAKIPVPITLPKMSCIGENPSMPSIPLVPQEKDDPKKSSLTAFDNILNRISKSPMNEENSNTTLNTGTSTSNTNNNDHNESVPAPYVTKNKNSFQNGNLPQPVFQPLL
Assay: PBM E-score (8-mer binding enrichment) (E-score (-0.5 to 0.5)); higher = stronger / more preferred TF binding; most listed sequences are background and not binding sites
Conditions: protein concentration: 200 nM; construct: GST-full length
Experimental: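 Universal 'all 10-mer' protein binding microarrays (Agilent AMADID 015681) probed with GST-tagged S. cerevisiae TFs (full-length or DBD) made by in vitro transcription/translation (PURExpress), about 100-200 nM. Bound TF was detected with fluorescent anti-GST. Each ungapped 8-mer (which stands for itself and its reverse complement) is scored by the PBM enrichment score (E-score), a modified Wilcoxon-Mann-Whitney statistic from -0.5 to +0.5, computed with the Universal PBM Analysis Suite. Scale: above 0.35 generally sequence-specific binding.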

Going from CCATCTGA to TTCAAAAA, the “PBM E-score” value falls from 0.175 to -0.198.

Compared with TAAGCTTA, CACACATC is higher in “PBM E-score” value: 0.117 for the first, 0.155 for the second.

First: GTCGGACA
Second: TGGAGACA
The “PBM E-score” value of the first is lower: -0.16 for the first, 0.21 for the second.

Going from CAATGTTA to CGGGACAC, the “PBM E-score” value rises from -0.117 to 0.167.

First: AAAACTGG
Second: ACCTCGCC
The “PBM E-score” value of the first is higher: -0.054 for the first, -0.0575 for the second.

First: ACAGCACT
Second: TATACATA
The “PBM E-score” value of the first is lower: -0.0389 for the first, 0.167 for the second.

Going from CGAAGCAC to GGCGACCA, the “PBM E-score” value falls from -0.0649 to -0.193.

Going from GGCTGTTA to GTAGAACA, the “PBM E-score” value falls from -0.0965 to -0.175.

Compared with AACTAATT, CGTCGTTA is lower in “PBM E-score” value: -0.0436 for the first, -0.0921 for the second.

Going from GCTTTCTA to CACACAAG, the “PBM E-score” value rises from -0.0897 to 0.177.

Compared with CTAAGACC, CTCCATAA is lower in “PBM E-score” value: 0.0909 for the first, -0.0784 for the second.

Going from AAGTGCCG to GCTGGACA, the “PBM E-score” value rises from -0.208 to -0.0617.

First: AAAAAACC
Second: AGAGCCAA
The “PBM E-score” value of the first is lower: -0.173 for the first, 0.071 for the second.

Compared with TGGGACCA, GAGTAAAA is lower in “PBM E-score” value: -0.0292 for the first, -0.102 for the second.

Going from ACTAAATG to CAGGAAGC, the “PBM E-score” value rises from 0.0404 to 0.121.

Going from GCGTGCAA to AGTGCCAC, the “PBM E-score” value falls from -0.0681 to -0.247.

First: AAAACCGG
Second: AAGCTGGG
The “PBM E-score” value of the first is higher: 0.136 for the first, -0.0313 for the second.

First: AGATGTCC
Second: TAGCCTAA
The “PBM E-score” value of the first is lower: -0.173 for the first, -0.142 for the second.

First: GTAGGGAC
Second: ACTGGTGC
The “PBM E-score” value of the first is lower: -0.077 for the first, 0.158 for the second.

First: GAGGCGGC
Second: CATATGAG
The “PBM E-score” value of the first is lower: 0.0803 for the first, 0.219 for the second.

Compared with GGCAGGAA, GTACGGTA is higher in “PBM E-score” value: -0.186 for the first, 0.00151 for the second.

Compared with ACCAAGAC, ATCCGAAA is lower in “PBM E-score” value: 0.0377 for the first, -0.11 for the second.

Compared with CTCTTCGA, CCGCGAGG is higher in “PBM E-score” value: -0.127 for the first, 0.249 for the second.

Compared with AGTCTCCC, AGCGGACG is lower in “PBM E-score” value: 0.202 for the first, -0.0316 for the second.

First: CGCTGAAA
Second: AGCTATAT
The “PBM E-score” value of the first is lower: -0.108 for the first, 0.107 for the second.

Going from TCAATTCA to GCCTCCTA, the “PBM E-score” value falls from -0.0518 to -0.209.

First: GGGCGAGA
Second: CCCTTCCC
The “PBM E-score” value of the first is lower: -0.052 for the first, 0.161 for the second.

Compared with GAGCGCCC, CACAATTC is lower in “PBM E-score” value: 0.126 for the first, 0.0896 for the second.

Going from TACATAAA to GAGAATGC, the “PBM E-score” value rises from -0.0692 to 0.0664.

First: CCCCAAGC
Second: CGGCCGAG
The “PBM E-score” value of the first is higher: 0.239 for the first, 0.11 for the second.

Compared with ACAACGCC, TCAATAGA is higher in “PBM E-score” value: -0.0778 for the first, -0.025 for the second.

First: CCTAGGGA
Second: ATGGCCTC
The “PBM E-score” value of the first is higher: 0.0204 for the first, 0.00916 for the second.

Compared with AACCGAGC, AGCGAGTC is higher in “PBM E-score” value: -0.00629 for the first, 0.275 for the second.

Going from AGTGCAAG to GCCCACGA, the “PBM E-score” value falls from -0.0995 to -0.173.

First: GTGCGATA
Second: ACTATGTA
The “PBM E-score” value of the first is lower: 0.0799 for the first, 0.207 for the second.

Going from ATGACTTG to ACTCCAAT, the “PBM E-score” value falls from 0.268 to 0.0976.

First: GCGTGAAA
Second: TCCTCCAA
The “PBM E-score” value of the first is lower: -0.214 for the first, -0.019 for the second.

Compared with CTGAACTC, ATGACTGC is higher in “PBM E-score” value: -0.0868 for the first, 0.41 for the second.

Compared with GAGTGTGC, AATACCCG is higher in “PBM E-score” value: 0.0366 for the first, 0.107 for the second.

Going from CTGGCAAA to ATCTTCGA, the “PBM E-score” value rises from -0.227 to -0.0322.

Going from TGGTGACA to CCAGACAG, the “PBM E-score” value falls from 0.0991 to -0.116.

First: ATCGCGAT
Second: ATCTCTGG
The “PBM E-score” value of the first is higher: 0.204 for the first, -0.0853 for the second.

Going from CGCTGGTC to AGGTGTAA, the “PBM E-score” value rises from -0.0561 to -0.0503.

Compared with AAGTACCC, CATATATC is higher in “PBM E-score” value: -0.206 for the first, 0.142 for the second.

Compared with ATCTGGCG, ACTCGTAA is lower in “PBM E-score” value: 0.123 for the first, 0.0568 for the second.

First: CCTGTTAG
Second: GAGGCGGA
The “PBM E-score” value of the first is higher: -0.102 for the first, -0.168 for the second.

Going from CCAACAGC to CGTGATTC, the “PBM E-score” value rises from 0.0131 to 0.326.

Going from ACGGGGGC to TCGCCACA, the “PBM E-score” value rises from -0.212 to 0.202.

First: CATAGTAA
Second: CCTTTGAA
The “PBM E-score” value of the first is higher: 0.212 for the first, -0.1 for the second.

First: GGGGCCGA
Second: CTGTGGCA
The “PBM E-score” value of the first is lower: -0.151 for the first, -0.099 for the second.

First: TAGATCCA
Second: AAGGTACT
The “PBM E-score” value of the first is lower: -0.0595 for the first, -0.0263 for the second.

Compared with ACTATCAC, CAAAGTGC is lower in “PBM E-score” value: 0.0289 for the first, -0.0139 for the second.

Compared with GATCCTAC, ACTCCCCT is higher in “PBM E-score” value: 0.113 for the first, 0.153 for the second.

First: CGCCACAA
Second: ATCTAACA
The “PBM E-score” value of the first is higher: 0.0246 for the first, -0.0319 for the second.

Going from ATGGAGCG to CGGCGGTA, the “PBM E-score” value falls from 0.119 to 0.109.

Going from GGGAAGGA to GTTATAGA, the “PBM E-score” value falls from -0.14 to -0.173.

Going from AAAAAATG to CCAACGGC, the “PBM E-score” value falls from -0.189 to -0.287.

Compared with AACTCACG, TAGTGAGA is higher in “PBM E-score” value: 0.109 for the first, 0.118 for the second.

Going from CCTATACG to TAGTTCAA, the “PBM E-score” value rises from -0.055 to -0.0142.

Compared with AGTGGTCG, GGAGTCCC is higher in “PBM E-score” value: 0.2 for the first, 0.227 for the second.

Going from GACCTTAC to CGTGAATA, the “PBM E-score” value rises from -0.112 to 0.119.

Going from CGGATTAG to TCCGCAAA, the “PBM E-score” value falls from 0.0373 to -0.105.

Going from GCGGCTGA to AACGTCCA, the “PBM E-score” value falls from 0.0414 to -0.223.

Going from AAGATCTA to CCCTATAC, the “PBM E-score” value rises from -0.199 to 0.0462.

First: CCCGGTGC
Second: ATTGGCGG
The “PBM E-score” value of the first is lower: -0.0384 for the first, -0.0369 for the second.

Going from ACCCCAAG to ATCGGACA, the “PBM E-score” value falls from -0.0964 to -0.118.

Compared with CGGAAGCA, AGCCCAAT is lower in “PBM E-score” value: -0.0998 for the first, -0.133 for the second.

First: CCTTTGTA
Second: CCACTGGG
The “PBM E-score” value of the first is lower: -0.273 for the first, -0.121 for the second.

Going from AGGCAATC to ACTTTTCA, the “PBM E-score” value falls from -0.102 to -0.269.

Compared with GTCGGCAC, ACGAATGC is higher in “PBM E-score” value: -0.115 for the first, -0.0487 for the second.

Going from AAGTACGT to CGGGATCA, the “PBM E-score” value rises from -0.077 to 0.0945.

Compared with ATCGCTTG, TATGGAAA is lower in “PBM E-score” value: 0.071 for the first, -0.00154 for the second.

First: CGGACATC
Second: CGCCGAAA
The “PBM E-score” value of the first is lower: -0.138 for the first, 0.123 for the second.

Compared with CGCGGACC, AGTGGATC is higher in “PBM E-score” value: 0.102 for the first, 0.172 for the second.

Going from ATATGGCG to GGTCAAGA, the “PBM E-score” value falls from 0.0173 to 0.0067.

Going from CAGGGTAA to CCTACTAG, the “PBM E-score” value falls from 0.163 to 0.0535.

Going from CAGGATCA to AGCACACG, the “PBM E-score” value falls from 0.0935 to -0.0162.

Going from AAAATAAC to CACGTGAA, the “PBM E-score” value rises from -0.127 to -0.047.

Compared with GGCTACTA, CTCGATGC is lower in “PBM E-score” value: 0.179 for the first, -0.00057 for the second.

First: GCCGAGAC
Second: CACTCCGC
The “PBM E-score” value of the first is lower: -0.0553 for the first, 0.144 for the second.

Going from GCACTCCA to ACTTTCAG, the “PBM E-score” value rises from -0.248 to -0.166.

Compared with CATATCTC, ACGATCAT is higher in “PBM E-score” value: 0.0164 for the first, 0.089 for the second.

Compared with GGTACGAC, CATCCCAA is higher in “PBM E-score” value: 0.00399 for the first, 0.0716 for the second.

Compared with CAGACAGA, GCTGGGGA is lower in “PBM E-score” value: -0.0253 for the first, -0.154 for the second.

Going from CTCGCACA to CTGACAGC, the “PBM E-score” value falls from 0.0558 to 0.0155.

First: GCATTACA
Second: CAAAAACC
The “PBM E-score” value of the first is higher: 0.0758 for the first, -0.115 for the second.
